According to PubChem BioAssay AID686978 (National Center for Advancing Translational Sciences (NCATS), 2013):
The whole screen tested about 420,000 compounds, of which about 64,000 (15%) were called active. This list was built around the results that the source calls inconclusive (neither active nor inactive); the mix of calls is not that of the screen. Calls come from the whole dose curve; as a rule, active = well fitted inhibition curve with a large enough effect; inconclusive = small, poorly fitted or top-dose-only effect; inactive = flat fitted curve, though single readings scatter. No potency is given beside an inconclusive call; the fits are too rough.

Assay: qHTS for Inhibitors of human tyrosyl-DNA phosphodiesterase 1 (TDP1): qHTS in cells in absence of CPT; note: nearly all actives have a fitted effect of over 55% in size
Details: DT40 Tdp1-/- hTDP1 cells, no CPT, ATP luminescence, 48 h; activity change, negative = growth inhibition: at 46.2 µM (top of the series) unless noted
How it was run: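 Cells were dispensed at 400 per well, compounds added by pin tool, plates incubated ≥48 hr at 37 °C, then CellTiter-Glo added for 30 min at room temperature before luminescence reading. Line: DT40 Tdp1-/- complemented with hTDP1; camptothecin omitted.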
% is set by controls: 0 for no effect and ±100 for the full control effect; potency is the fitted concentration of half-maximal effect; tags give direction and shape of the fitted curve.

SMILES | activity change, negative = growth inhibition | Potency
OC(COCc1ccco1)CN1CCN(c2ccccc2)CC1 (stereo not given) | inactive: -2.82% | 
O=c1c(N=Nc2ccccc2)c[nH]n1-c1ccccc1 |  | inconclusive [inhibitor, partial curve]
O=C1c2ccccc2C(c2nnnn2-c2ccc3c(c2)OCCO3)N1Cc1cccs1 (stereo not given) |  | inconclusive [inhibitor, single point]
COc1ccccc1OCc1nc(Cc2ccc(Cl)cc2)no1 | inactive: -1.7% | 
Cc1nn(CC(=O)NCc2ccccc2F)c(C)c1[N+](=O)[O-] |  | inconclusive [inhibitor, partial curve]
COc1ccc(OC)c(NC(=O)CNC(=O)c2ccc([N+](=O)[O-])cc2)c1 |  | inconclusive [inhibitor, single point]
COc1cccc(N2CCN(C(=O)c3ccc(CS(=O)c4ccc(Cl)cc4)o3)CC2)c1 (stereo not given) |  | active: 0.92 µM
CC(=O)c1ccc(N2C(=O)N(Cc3cc(C)ccc3C)c3ccccc3S2(=O)=O)cc1 |  | active: 18.4 µM
C(=NN=C1c2ccccc2-c2ccccc21)c1c[nH]c2ccccc12 |  | inconclusive [inhibitor, single point]
COc1ccc(NC(=O)Cc2noc3ccc(C)cc23)cc1Cl |  | inconclusive [inhibitor, single point]
Cc1cc(=O)[nH]c(-n2nc(C)c(Oc3ccccc3O)c2C)n1 |  | inconclusive [inhibitor, single point]
COc1ccccc1OC(C)C(=O)Nc1nc(-c2ccc(S(=O)(=O)N3CCOCC3)cc2)cs1 (stereo not given) |  | inconclusive [inhibitor, single point]
COc1ccc(CNC(=O)c2cc(S(=O)(=O)N3CCOCC3)cn2C)cc1 | inactive: 1.68% | 
Cc1ccc(S(=O)(=O)Nc2cccc(NC(=O)CN3CCCCC3)c2)cc1 |  | inconclusive [inhibitor, partial curve]
CC1=C(C(=O)Nc2cccc(C(F)(F)F)c2)C(c2ccccc2)n2ncnc2N1 (stereo not given) | inactive: -16.6% | 
Cn1cc(CN2CCC(CO)CC2)c(-c2ccc(Oc3ccccc3)cc2)n1 |  | inconclusive [inhibitor, single point]
CC1(c2ccc(OC(F)F)cc2)NC(=O)N(CC(=O)Nc2ccc3c(c2)OCO3)C1=O (stereo not given) |  | inconclusive [inhibitor, single point]
COc1cc2nc(NC3CCN(C)CC3)nc(N3CCCN(C)CC3)c2cc1OC |  | inconclusive [inhibitor, single point]
CCn1cnc2c([N+](=O)[O-])c(NS(=O)(=O)c3ccc(C)cc3)ccc21 |  | inconclusive [inhibitor, single point]
COc1ccc(S(=O)(=O)NN(C)c2nc(C(F)(F)F)nc3ccccc23)cc1 |  | inconclusive [inhibitor, single point]
Cc1cccc(NC(=O)CCC(=O)c2cccs2)n1 | inactive: -11.5% | 
CCOc1ccccc1O[C@H](c1ccccc1)[C@H]1CNCCO1 |  | active: 18.8 µM
Cc1ccc(NC(=O)c2cc(S(=O)(=O)Nc3ccc(C)cc3)cs2)cc1 |  | active: 23.1 µM

SMILES | activity change, negative = growth inhibition | Potency
C=CCc1ccccc1OCC(O)CN1CCN(c2ccccc2F)CC1 (stereo not given) |  | inconclusive [inhibitor, single point]
O=C(Cc1ccccc1)NCC(=O)N/N=C/c1ccc([N+](=O)[O-])s1 |  | active: 14.6 µM
COc1cccc(N2CC(NC(=O)C3CC3)CC2=O)c1 (stereo not given) | inactive: 0.872% | 
O=C(NN1C(=O)/C(=C\c2ccc(O)c([N+](=O)[O-])c2)SC1=S)c1ccccc1Cl |  | inconclusive [inhibitor, single point]
CN(C(=O)/C=C/c1ccccc1)C1CCCCC1 | inactive: -21.8% | 
COc1ccc(F)cc1C(=O)C1CCCN(C(=O)CSc2ccccn2)C1 (stereo not given) | inactive: -17.1% | 
CC(=O)N(C)c1ccc(C(O)(C(F)(F)F)C(F)(F)F)cc1 |  | inconclusive [inhibitor, partial curve, poor fit]
Cn1ncc([N+](=O)[O-])c1C(=O)n1nnc2ccccc21 | inactive: 6.43% | 
O=C(C[C@@H]1C/C=C\CCCC(=O)OC[C@@H](c2ccccc2)NC1=O)NCCO | inactive: 2.04% | 
O=C(Cn1cnc2c(cnn2-c2ccccc2)c1=O)NCCc1ccccc1 | inactive: -23.8% | 
O=C(CCN1C(=O)/C(=C/c2ccc(Cl)cc2)SC1=S)NC1C=CS(=O)(=O)C1 (stereo not given) |  | inconclusive [inhibitor, partial curve]
Cc1cccc(N2CCN(C(=O)c3cccc(N4C(=O)C5C6C=CC(C6)C5C4=O)c3)CC2)c1C (stereo not given) |  | inconclusive [inhibitor, partial curve]
CCOc1ccc2c(c1)c(=O)c(C(=O)c1ccc(CC)cc1)cn2CC(=O)Nc1ccccc1C |  | inconclusive [inhibitor, single point]
CCOc1ccc(NS(=O)(=O)c2ccc(C(=O)N(C)CC(=O)Nc3ccccc3Br)cc2)cc1 |  | inconclusive [inhibitor, partial curve]
O=C(c1ccc(Br)cc1)N1CCN(S(=O)(=O)c2ccccc2)CC1 |  | inconclusive [inhibitor, single point]
Cc1ccc(OCC(=O)Nc2cccc(S(=O)(=O)N3CCCCCC3)c2)c([N+](=O)[O-])n1 |  | active: 16.4 µM
CC(=O)Nc1ccc(NS(=O)(=O)c2c(Cl)cccc2Cl)cc1 |  | inconclusive [inhibitor, single point]
CCCCCCCCCn1ccc(=N)cc1 |  | active: 0.146 µM
O=C(O)C1C(c2ccccc2)C(C(=O)Oc2ccccc2)C1c1ccccc1 (stereo not given) | inactive: -1.74% | 
COc1ccccc1OCCn1cc(C#N)c2ccccc21 |  | inconclusive [inhibitor, full curve, poor fit]
Cc1nc2cc(-c3cccc(F)c3)nn2c(C)c1CCC(=O)NC(C)CCc1ccco1 (stereo not given) |  | inconclusive [inhibitor, single point]
Cc1ccc(CCNC(=O)c2ccc(NC(=O)N3CCSc4ccccc43)cc2)cc1 |  | inconclusive [inhibitor, single point]
